Results published in the supplement of paper PMC4166925.
± gives the standard deviation of the averaged measurements. Whole data set: some 33,000 sequences, median “E-score (dimensionless, -0.5 to 0.5)” near -0.049, cut for the highest 2% near 0.37. The list shows a part of the results.

Tested on: T1, PmTbr T-box DNA-binding domain (GST fusion)
T1 sequence: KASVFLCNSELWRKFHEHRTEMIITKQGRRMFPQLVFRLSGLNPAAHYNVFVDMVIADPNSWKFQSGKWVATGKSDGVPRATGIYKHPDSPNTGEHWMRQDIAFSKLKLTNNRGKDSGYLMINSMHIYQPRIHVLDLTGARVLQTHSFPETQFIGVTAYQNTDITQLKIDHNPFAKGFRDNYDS
Assay: PBM E-score of 8-mer (E-score (dimensionless, -0.5 to 0.5)); Tbr is Tbrain of the sea star Patiria miniata (Pm) or the sea urchin Strongylocentrotus purpuratus (Sp); higher = stronger binding preference; most listed sequences are background and not binding sites
Conditions: the construct has about 5 more residues each side
Procedure, shortened: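 Each ungapped 8-mer received an enrichment E-score from the Universal PBM Analysis Suite, averaged over duplicate arrays. The proteins were Tbr T-box DNA-binding domains, covering the whole T-box plus about five flanking residues, fused to GST and expressed in BL21 E. coli at 20 °C before glutathione affinity purification. Universal Agilent oligonucleotide arrays were made double-stranded by primer extension and incubated with 200 nM protein in PBS (pH 7.5). The arrays were then scanned and quantified, and every 8-mer was scored from probe intensities.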

Row | Sequence | PBM E-score of 8-mer
1 | CCGACAGA | 0.14 ± 0.039
2 | CCCCACAA | 0.168 ± 0.04
3 | ATGCTTGC | -0.00782 ± 0.049
4 | ACATTACG | 0.0527 ± 0.019
5 | CTGTACAG | -0.0973 ± 0.04
6 | AGGATCCT | 0.077 ± 0.074
7 | CTTTGGGA | -0.0906 ± 0.0035
8 | CGGCGCCC | -0.0887 ± 0.1
9 | ATCGGGGA | -0.344 ± 0.057
10 | AGCGGATA | -0.0522 ± 0.025
11 | CGGCTCTC | -0.162 ± 0.11
12 | GAGCTCAA | -0.187 ± 0.0035
13 | ACGTTCCT | -0.053 ± 0.11
14 | CTAACAAG | 0.198 ± 0.019
15 | GGAATACA | -0.178 ± 0.07
16 | ACCAAGAG | 0.061 ± 0.015
17 | AGAGGCGC | 0.22 ± 0.016
18 | ACGACCAC | -0.0751 ± 0.033
19 | GGCTAGAA | -0.114 ± 0.04
20 | ACGCCCCT | 0.184 ± 0.026
21 | AGAGTGAA | 0.0596 ± 0.056
22 | CTCGCTTC | 0.0925 ± 0.0047
23 | ACGGTAGC | 0.0857 ± 0.071
24 | ACATATGG | 0.139 ± 0.0049
25 | GGCGCAGA | -0.0539 ± 0.045

Row | Sequence | PBM E-score of 8-mer
26 | CTACAACC | -0.0546 ± 0.02
27 | AACGTCGA | -0.151 ± 0.011
28 | CAAACGTG | 0.274 ± 0.017
29 | TAGCATAA | -0.089 ± 0.025
30 | CACAATAG | 0.0919 ± 0.0084
31 | GGCCGGAA | -0.18 ± 0.0071
32 | AAGACGGG | -0.179 ± 0.056
33 | GACCGTAA | -0.13205 ± 5.7e-05
34 | AGACGGAC | -0.261 ± 0.022
35 | CAGCTCTC | -0.0593 ± 0.0051
36 | CAGCAGTA | -0.0761 ± 0.041
37 | GCATTACC | -0.186 ± 0.036
38 | AAATCTTG | -0.102 ± 0.11
39 | TAGGACTA | -0.158 ± 0.13
40 | ATCCCCCA | -0.0931 ± 0.074
41 | GCCTAAGC | -0.212 ± 0.043
42 | ACTGGAAG | -0.188 ± 0.031
43 | GAACGCCC | 0.138 ± 0.037
44 | AATTACGT | -0.0719 ± 0.11
45 | ATGTGATA | 0.298 ± 0.048
46 | AATTTGGC | 0.156 ± 0.079
47 | ACGAGCGC | -0.11 ± 0.027
48 | ATTCGCCG | 0.0106 ± 0.035
49 | CGACACCA | 0.414 ± 0.01
50 | CGCGTAAG | 0.168 ± 0.016

Row | Sequence | PBM E-score of 8-mer
51 | CAATTATC | 0.162 ± 0.081
52 | GTAGCGAA | 0.0587 ± 0.064
53 | CAGCGCCA | 0.109 ± 0.028
54 | TCTTTAAA | -0.155 ± 0.027
55 | AGGGTTTA | -0.108 ± 0.0047
56 | ATTGAGGG | -0.234 ± 0.015
57 | CCGCTCCC | -0.00331 ± 0.029
58 | AGACTCAC | 0.14 ± 0.0049
59 | ATAAGTAT | -0.123 ± 0.12
60 | ATATCTAG | -0.224 ± 0.043
61 | CTTCGTTA | 0.0494 ± 0.024
62 | CAGGTTAG | -0.00261 ± 0.011
63 | CGGCCGCC | 0.0148 ± 0.075
64 | AATTGTGC | 0.18 ± 0.014
65 | CCTATCGA | 0.0766 ± 0.026
66 | CTCCCACC | 0.319 ± 0.02
67 | CGTCAGGC | 0.0046 ± 0.028
68 | GAGGCCGA | -0.169 ± 0.067
69 | GATGCCAA | -0.123 ± 0.025
70 | CGTGCTCA | -0.0409 ± 0.08
71 | CCACGACG | 0.0726 ± 0.039
72 | GCGTACGA | -0.218 ± 0.076
73 | TAATAGGA | -0.236 ± 0.026
74 | CGTCTAGA | -0.204 ± 0.036
75 | ACTTTATG | 0.106 ± 0.044

Row | Sequence | PBM E-score of 8-mer
76 | TGACCACA | 0.144 ± 0.017
77 | GGCCGGCA | -0.135 ± 0.029
78 | CGCACTCA | 0.161 ± 0.074
79 | CGATAGAG | -0.0781 ± 0.011
80 | ATTCCAAA | -0.126 ± 0.05
81 | AAACATAG | -0.0796 ± 0.034
82 | ACTTCTAG | 0.134 ± 0.019
83 | AAGTGCGG | 0.247 ± 0.0065
84 | CCATTGTC | 0.0521 ± 0.011
85 | ACATGTTC | 0.0421 ± 0.079
86 | GCCAGTAA | 0.159 ± 0.046
87 | ACAATAGA | -0.139 ± 0.04
88 | ATTGGGGG | -0.047 ± 0.012
89 | AGCCGTAG | -0.272 ± 0.016
90 | AGCCAACG | 0.00609 ± 0.044
91 | CAGAACAA | -0.164 ± 0.13
92 | CCTCGAGC | -0.0327 ± 0.096
93 | AGCGAACT | 0.111 ± 0.03
94 | GACATATC | -0.02 ± 0.011
95 | CCCAGGAG | -0.147 ± 0.0049
96 | CCAGGGCA | -0.238 ± 0.043
97 | AGTACTTA | -0.0483 ± 0.016
98 | ATAAGGTC | -0.146 ± 0.021
99 | ACGGGATA | -0.0244 ± 0.035
100 | GCAACTTA | 0.0607 ± 0.0022

Row | Sequence | PBM E-score of 8-mer
101 | CCCTCGAA | -0.0611 ± 0.012
102 | CATAGCCG | -0.212 ± 0.068
103 | GTGCTAAA | 0.435 ± 0.007
104 | ACCACTAC | -0.202 ± 0.026
105 | TCGGAAAA | -0.118 ± 0.1
106 | AATGACCA | -0.276 ± 0.035
107 | CGTGCACA | 0.0991 ± 0.031
108 | AGTTCGAC | -0.102 ± 0.014
109 | ATGCATTC | -0.218 ± 0.024
110 | GCTCCGCA | -0.0597 ± 0.027
111 | ATAGGGCA | -0.249 ± 0.048
112 | CCATACCG | -0.127 ± 0.026
113 | AACAGCAT | -0.0226 ± 0.048
114 | GACCGTCA | 0.145 ± 0.016
115 | GCATGACC | -0.127 ± 0.045
116 | AGTACCTA | -0.0943 ± 0.082
117 | TATGAATA | -0.183 ± 0.043
118 | AGTTAACA | 0.334 ± 0.013
119 | GTAAACAC | 0.278 ± 0.0036
120 | CACTTTCA | 0.312 ± 0.013
121 | GCCGGGAC | -0.201 ± 0.054
122 | GACGCCGA | 0.124 ± 0.032
123 | CCACCAGC | -0.164 ± 0.089
124 | AGGAGCGG | -0.197 ± 0.0049
125 | AAGGCCAC | -0.125 ± 0.026

Row | Sequence | PBM E-score of 8-mer
126 | GGAGGTAC | -0.298 ± 0.088
127 | ATGCCACA | -0.0134 ± 0.0099
128 | CCCCATTC | -0.114 ± 0.021
129 | CGAGTTCC | -0.159 ± 0.039
130 | TAATCATA | -0.2035 ± 0.0014
131 | GAAACTGC | -0.0506 ± 0.011
132 | CGAATTAC | -0.0757 ± 0.082
133 | GCCCGCTA | 0.00318 ± 0.07
134 | TGATGACA | 0.236 ± 0.028
135 | TCCCGCGA | 0.208 ± 0.011
136 | CGCCGTAG | -0.118 ± 0.0022
137 | CAAAACTC | 0.0108 ± 0.045
138 | GGCGAACC | -0.17 ± 0.042
139 | ACTTATGC | -0.128 ± 0.028
140 | GAGATATC | 0.105 ± 0.073
141 | CGATACAA | -0.192 ± 0.076
142 | AGAGAGCA | -0.179 ± 0.096
143 | ACCAATAC | 0.0422 ± 0.027
144 | TTAACAAA | 0.0835 ± 0.071
145 | GCGTCGCA | 0.121 ± 0.0043
146 | CACAAATA | 0.018 ± 0.018
147 | CGGGTCCA | -0.0138 ± 0.1
148 | CCGCGCGG | -0.096 ± 0.013
149 | AGGGTGCG | 0.356 ± 0.052
150 | ACAATACA | 0.0805 ± 0.032

Row | Sequence | PBM E-score of 8-mer
151 | CAGGCGCC | 0.261 ± 0.031
152 | GCCATAAC | 0.118 ± 0.0071
153 | AAGCGCAC | 0.0383 ± 0.021
154 | CTTGATAC | -0.133 ± 0.057
155 | GGACACCA | 0.0777 ± 0.029
156 | GAGCACTC | -0.232 ± 0.038
157 | ATGTTAAG | -0.159 ± 0.049
158 | GGTCTGGA | -0.223 ± 0.084
159 | ACGAGCTA | -0.101 ± 0.0022
160 | GAAATCCC | -0.103 ± 0.044
161 | CCTAAAAC | -0.00751 ± 0.035
162 | CTTCCACA | 0.151 ± 0.069
163 | ATCGCCAC | 0.226 ± 0.015
164 | AGGATTAC | -0.191 ± 0.055
165 | TACTCATA | -0.0296 ± 0.03
166 | AACGAAAC | 0.0697 ± 0.048
167 | GGCGTCAC | 0.355 ± 0.026
168 | GGGCCCTA | -0.334 ± 0.01
169 | AAACTTTG | -0.0931 ± 0.07
170 | AACATCTC | 0.198 ± 0.0056
171 | GTAACCTA | -0.165 ± 0.026
172 | GCTCCAAC | 0.0343 ± 0.0028
